Test results as given in PubChem BioAssay AID1476 (National Center for Advancing Translational Sciences (NCATS), 2009).
In all, about 200,000 compounds went through this assay and about 4,500 (2.2%) were called active. Inconclusive results, whose numbers are uncertain, are shown with a selection of clear calls. Calls follow the shape of the dose curve; as a rule, active = well fitted inhibition curve with a large enough effect; inconclusive = small, poorly fitted or top-dose-only effect, or effect the other way; inactive = flat fitted curve, though single readings scatter. Potencies beside an inconclusive call are fits to weak or partial responses and may not hold up.
Also: nearly all actives have a fitted effect of over 40% in size.
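For max response, negative = inhibition in this document: plate controls were enzyme without inhibitor for no effect and buffer without enzyme for full effect.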
Potency is read from the fitted curve at half-maximal effect; tags tell the direction and shape of the fitted curve.

Each molecule was assayed against Cruzipain (Trypanosoma cruzi) (UniProt P25779) (assay: qHTS Assay for Promiscuous and Specific Inhibitors of Cruzain (without detergent)). Details: purified cruzain, Z-FR-AMC fluorescence, no detergent.
Chain of UniProt P25779 (P25779 whole entry, looked up): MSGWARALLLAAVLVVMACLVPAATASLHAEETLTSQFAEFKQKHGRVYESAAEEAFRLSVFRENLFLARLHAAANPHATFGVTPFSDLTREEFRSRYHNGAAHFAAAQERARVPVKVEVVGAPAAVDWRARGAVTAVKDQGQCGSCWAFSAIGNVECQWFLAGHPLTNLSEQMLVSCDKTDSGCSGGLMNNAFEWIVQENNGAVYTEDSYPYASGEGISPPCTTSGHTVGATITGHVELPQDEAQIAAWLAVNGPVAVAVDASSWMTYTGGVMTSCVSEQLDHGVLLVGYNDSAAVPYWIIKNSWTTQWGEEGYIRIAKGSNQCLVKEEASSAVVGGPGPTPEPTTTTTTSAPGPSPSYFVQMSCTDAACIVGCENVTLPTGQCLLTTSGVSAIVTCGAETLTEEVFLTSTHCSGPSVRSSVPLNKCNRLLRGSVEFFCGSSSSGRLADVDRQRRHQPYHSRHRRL
Outline: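 Purified cruzain at 1.5 nM, pre-incubated 15 min with compound at room temperature in 100 mM sodium acetate pH 5.5, 5 mM DTT, 0.00005% Triton X-100. Reaction started with 2 uM Z-FR-AMC; AMC fluorescence increase over 60 s gives rate.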
For `Cc1cccc(C)c1NC(=O)CSc1nc2ccccc2c(=O)[nH]1`, the Potency was inconclusive: 39.8 µM [inhibitor, single point].
With `COc1ccc2cc(CN(Cc3cccnc3)S(=O)(=O)c3ccccc3)c(=O)[nH]c2c1` the Potency was inconclusive: 31.6 µM [activator, single point].
With `O=C(Nc1sc2c(c1C(=O)c1ccc(Cl)cc1)CCCC2)c1cccnc1` the Potency was inconclusive: 31.6 µM [inhibitor, single point].
For `CCOC(=O)N1CCC(NC(=O)c2ccc3c(c2)N(Cc2ccccc2)C(=O)c2ccccc2S3(=O)=O)CC1`, the Potency was inconclusive: 39.8 µM [activator, single point].
With `CCOc1ccccc1CNC(=O)C(CC)n1nc(C)c2c(C)n(-c3ccccc3)nc2c1=O` (stereo not drawn) the max response, negative = inhibition was inactive: 0.216%.
`COc1cc2c(cc1OC)C(COc1ccc3c(C)cc(=O)oc3c1)N(C(=O)c1ccc(C)cc1)CC2` (stereo not drawn) was tested, and the Potency was inconclusive: 10 µM [activator, partial curve].
With `COc1ccc(C2c3c(n(C)c4ccccc34)C(=O)N2CC(=O)Nc2c(C)cc(C)cc2C)cc1` (stereo not drawn) the Potency was inconclusive: 39.8 µM [activator, single point].
`COc1cc(Cl)c(C)cc1NC(=O)CNC(=O)Cn1ccc2ccccc2c1=O` was tested, and the max response, negative = inhibition was inactive: 0.0961%.
For `COc1ccc(Cl)cc1NC(=O)c1ccc(CN2C(=O)CCn3nc(C)cc32)cc1`, the Potency was inconclusive: 39.8 µM [activator, single point].
For `CCc1ccc(/C=N/NC(=O)c2cc(C3CC3)nc3ccc(Br)cc23)s1`, the Potency was active: 25.1 µM.
For `COc1ccc(-c2nnc(SCC(=O)Nc3ncc(C)s3)n2-c2ccccc2)cc1OC`, the Potency was inconclusive: 25.1 µM [activator, partial curve].
`O=c1oc2c3c4c(cc2s1)CCCN4CCC3` was tested, and the Potency was inconclusive: 20 µM [inhibitor, partial curve, poor fit].
In the case of `Cc1oc2ncn(CC(C)C)c(=O)c2c1C(=O)NCc1cccc(Cl)c1`, the max response, negative = inhibition is reported as inactive: 7.55%.
`CS(=O)(=O)c1ncc(Cl)c(C(=O)N2CCN(c3cccc(Cl)c3)CC2)n1` was tested, and the Potency was inconclusive: 15.8 µM [activator, single point].
In the case of `Cc1cc(N2CCN(c3cccc(C(F)(F)F)c3)CC2)n2nc(C)nc2n1`, the Potency is reported as inconclusive: 31.6 µM [activator, single point].
For `O=C(Nc1nc(-c2ccccc2)cs1)C1CCCN(S(=O)(=O)c2ccccc2)C1` (stereo not drawn), the Potency was active: 20 µM.
With `O=C(Cc1ccc(-c2ccccc2)cc1)NCCS(=O)(=O)N1CCN(c2cccc(Cl)c2)CC1` the max response, negative = inhibition was inactive: 0.492%.
With `CCc1ccc(OCC(=O)NC(NC(=S)Nc2ccc(C)cc2C)C(Cl)(Cl)Cl)cc1` (stereo not drawn) the Potency was inconclusive: 39.8 µM [inhibitor, single point].
For `COC(=O)CC(=O)CSc1nc2cc(C(=O)NC(C)C)ccc2c(=O)n1CCc1ccccc1`, the Potency was inconclusive: 39.8 µM [activator, single point].
`CCc1ccc(N(C(=O)CNC(=O)c2cccs2)C(C(=O)NC(C)(C)C)c2cc(OC)c(OC)c(OC)c2)cc1` (stereo not drawn) was tested, and the Potency was inconclusive: 25.1 µM [activator, partial curve].
In the case of `COc1ccc2c(c1)c1c(c(=O)n(CCc3ccccc3)c(=O)n1Cc1cccc(C)c1)n2C`, the max response, negative = inhibition is reported as inactive: -3.89%.
With `CCOC(=O)c1ccc(NC(=O)CCCn2nc(C)c3sc4ccccc4c3c2=O)cc1` the Potency was inconclusive: 39.8 µM [inhibitor, single point].
In the case of `CCCCC(=O)Nc1cccc(NC(=O)C(C)C)c1`, the max response, negative = inhibition is reported as inactive: 0.933%.
With `COCCCn1c(C)nc2c(c1=O)c1nc3ccccc3nc1n2CCc1ccccc1` the Potency was inconclusive: 31.6 µM [activator, partial curve].
With `COc1ccc2nc(N3C(=O)CC(Cc4ccc(Cl)cc4)C3=O)sc2c1` (stereo not drawn) the Potency was inconclusive: 25.1 µM [inhibitor, single point].
In the case of `CCOc1ccc(S(=O)(=O)N(CCO)CCO)cc1-c1nc2c(C(C)(C)C)nn(C)c2c(=O)[nH]1`, the Potency is reported as inconclusive: 25.1 µM [activator, single point].
With `Cn1c(=O)oc2cc(S(=O)(=O)N3CCC(C(=O)N4CCN(c5ccccc5)CC4)CC3)ccc21` the Potency was inconclusive: 39.8 µM [activator, single point].
`CC(=O)O[C@@H]1C[C@@]2(C)C(c3ccoc3)C[C@H]3O[C@]32[C@]2(C)C(=O)C(O)=C3C(C)(C)C(=O)C=C[C@]3(C)C12` (stereo partly drawn) was tested, and the Potency was inconclusive: 20 µM [activator, single point].
For `Cc1ccc(C(=O)CSc2nnc(-c3cccs3)n2C)o1`, the max response, negative = inhibition was inactive: -9.46%.
For `CCOC(=O)N1CCC(=NNc2ccc(S(=O)(=O)N3CCOCC3)cc2[N+](=O)[O-])CC1`, the Potency was inconclusive: 39.8 µM [activator, single point].
`Cc1cc2oc(=O)cc(-c3ccccc3)c2c(C)c1-c1cccc(N)c1` was tested, and the Potency was inconclusive: 8.91 µM [inhibitor, single point].
With `COc1cc(/C=N/NC(=O)c2cccnc2)ccc1OS(=O)(=O)c1cc(C)ccc1C` the Potency was inconclusive: 31.6 µM [activator, single point].
For `Cc1ccc(NC(=O)CSc2nnc(COc3ccc(Cl)cc3)o2)cc1`, the max response, negative = inhibition was inactive: 1.76%.
In the case of `O=C1c2cccc3c([N+](=O)[O-])ccc(c23)C(=O)N1c1ccccn1`, the max response, negative = inhibition is reported as inactive: -4.47%.
In the case of `COc1ccc(S(=O)(=O)N(CC(=O)N2CCN(c3ccccc3OC)CC2)c2ccccc2)cc1`, the Potency is reported as inconclusive: 20 µM [activator, partial curve].
With `CN1c2ccccc2N(C)C1(C)c1cccc2ccccc12` the Potency was inconclusive: 39.8 µM [inhibitor, single point].
In the case of `Fc1ccc(-n2c(-c3ccco3)nc3nc4ccccc4nc32)cc1`, the Potency is reported as inconclusive: 3.16 µM [activator, single point].
`O=C(CSc1nc2ccccc2c(=O)n1-c1ccc(F)c(Cl)c1)Nc1cccc(S(=O)(=O)N2CCOCC2)c1` was tested, and the Potency was inconclusive: 31.6 µM [inhibitor, single point].
For `O=C(NCCCNC(=O)c1ccccn1)c1ccccn1`, the max response, negative = inhibition was inactive: -2.81%.
`CCCNC(=O)OC[C@H]1O[C@H](CCO/N=C/C[C@@H]2C=C[C@H](OC(C)=O)[C@@H](COC(C)=O)O2)C=C[C@@H]1Oc1ccc(OC)cc1` was tested, and the Potency was inconclusive: 25.1 µM [activator, partial curve].
For `Cc1cccc(-n2c(=O)c3c(c4cc(C)ccc4n3C)n(C)c2=O)c1`, the max response, negative = inhibition was inactive: -2.7%.
In the case of `CCSc1nnc(NC(=O)c2csc3c2CCCC3)s1`, the Potency is reported as inconclusive: 31.6 µM [inhibitor, single point].
In the case of `Cc1ccc(-c2nnc(Nc3cccc(Br)c3)c3ccccc23)cc1S(=O)(=O)N1CCCCC1`, the Potency is reported as active: 6.31 µM.
For `CN(C)S(=O)(=O)c1ccc(N2CCCC2)c(C(=O)Nc2nc(-c3ccc(F)c(F)c3)cs2)c1`, the max response, negative = inhibition was inactive: -12.1%.
For `CCCCN1C(=O)CN(C2CCCCCC2)C(=O)C1c1ccc(OCC)c(OC)c1` (stereo not drawn), the max response, negative = inhibition was inactive: 14.7%.
`CCOc1ccc(NC(=O)CSc2nc(-c3cccc(Cl)c3)nc3c2Cc2c(CO)cnc(C)c2O3)cc1` was tested, and the max response, negative = inhibition was inactive: -9.83%.
`Cc1cc(/C=C2/C(=O)N(C)C(=S)N2C)c(C)n1C1CC1` was tested, and the max response, negative = inhibition was inactive: -20.8%.
For `CC(=O)OC1COC(N2CCc3cc(Br)c([N+](=O)[O-])cc32)C(OC(C)=O)C1OC(C)=O` (stereo not drawn), the Potency was inconclusive: 39.8 µM [activator, single point].
In the case of `COC(=O)c1cc2oc(C)cc2n1Cc1cc(C)ccc1C`, the max response, negative = inhibition is reported as inactive: -2.44%.
`CC(=O)Nc1ccc(NC(=O)CSCc2cnn(-c3ccccc3)c2-n2cccc2)cc1` was tested, and the Potency was inconclusive: 39.8 µM [activator, single point].
For `COc1ccccc1N1CCN(C(=O)CSc2nc(-c3ccccc3)cc(=O)[nH]2)CC1`, the Potency was inconclusive: 39.8 µM [activator, single point].
With `CC(=O)c1ccc(S(=O)(=O)Nc2ccc(-c3ccc(N4CCCCC4)nn3)cc2)cc1` the Potency was inconclusive: 0.501 µM [activator, single point].
`O=C(Cc1ccc(Cl)cc1)c1c(O)cc(O)cc1O` was tested, and the max response, negative = inhibition was inactive: -22%.
For `CCOc1ccc(OCC)c(NS(=O)(=O)c2c(C)[nH]c(=O)[nH]c2=O)c1`, the max response, negative = inhibition was inactive: -11.1%.
`O=C(COC(=O)C12CC3CC(CC(C3)C1)C2)NCCCc1ccccc1` was tested, and the max response, negative = inhibition was inactive: 13.5%.
`Cc1ccc(C)c(NC(=O)CSc2c(C)cnc3c2c(=O)n(C)c(=O)n3C)c1` was tested, and the max response, negative = inhibition was inactive: -3.53%.
For `CN(C)c1ncc2ncc(=O)n(C)c2n1`, the Potency was inconclusive: 31.6 µM [inhibitor, single point].
`Cc1oc2ncn(CC(C)C)c(=O)c2c1C(=O)NCCc1ccc(Cl)cc1` was tested, and the max response, negative = inhibition was inactive: -14.8%.
In the case of `CCC1=C(OC(=O)N(CC)CC)N2C(=O)OC(=NCC3CC3)[C@]2(Cc2ccccc2)[C@H]2C1=CC[C@H]1C(=O)N(CC)C(=O)[C@H]12`, the Potency is reported as inconclusive: 31.6 µM [activator, single point].
With `CCOC(=O)COc1ccc(/C=C(\C#N)c2nc3ccc(C)cc3[nH]2)cc1OC` the Potency was inconclusive: 31.6 µM [activator, single point].
`COc1ccc(OC)c2sc(NC(=O)c3ccc(S(=O)(=O)N4CCOCC4)cc3)nc12` was tested, and the Potency was inconclusive: 25.1 µM [activator, partial curve].
In the case of `Cc1ccc2c(c1)-c1onc(C(=O)N(C)c3cccc(C(F)(F)F)c3)c1CO2`, the Potency is reported as inconclusive: 39.8 µM [activator, single point].
In the case of `CCc1nc2ccc(C(=O)NCc3ccc(OC)c(OC)c3)cc2nc1CC`, the Potency is reported as inconclusive: 39.8 µM [activator, single point].
